Test results from PubChem BioAssay AID1346428 (National Center for Advancing Translational Sciences (NCATS), 2018).
Among all 48,000 compounds or so, about 1,200 (2.5%) were called active. About 2% were inconclusive and are not listed.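 How the source made its calls: active means activation of at least 60% and not above a set upper limit (about 1 call in 100 departs from these limits); inconclusive means activation of 40% to 60%, or above that upper limit; inactive means activation under 40%.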 This is one part of the list.

Molecular target: Probable G-protein coupled receptor 32 (Homo sapiens) (UniProt O75388)
UniProt O75388, sequence (O75388 whole entry, looked up): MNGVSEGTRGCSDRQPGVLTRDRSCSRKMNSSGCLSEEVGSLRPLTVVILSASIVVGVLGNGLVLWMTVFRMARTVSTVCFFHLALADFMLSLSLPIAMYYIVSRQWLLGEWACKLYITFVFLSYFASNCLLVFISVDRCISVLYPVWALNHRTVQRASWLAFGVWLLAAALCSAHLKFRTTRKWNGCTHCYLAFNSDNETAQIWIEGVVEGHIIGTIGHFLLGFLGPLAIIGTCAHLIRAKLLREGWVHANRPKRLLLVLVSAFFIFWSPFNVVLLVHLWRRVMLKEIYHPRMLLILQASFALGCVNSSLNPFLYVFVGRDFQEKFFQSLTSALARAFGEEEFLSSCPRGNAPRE
Assay: qHTS for Agonists of Human Resolvin D1 Receptor DRV1; further: 0% is about no effect
Conditions: CHO-K1 GPR32 beta-arrestin PathHunter luminescence, 90 min; at 76.9 µM; stronger effect = higher value; zero percent set by DMSO-only wells
Outline: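 Engineered CHO-K1 line co-expressing GPR32-ProLink and EA-beta-arrestin. Compound treatment lasted 90 min at 37 °C. Luminescence was recorded after 1 h with substrate at ambient temperature, relative to DMSO basal wells.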

activation, inactive:
COc1ccccc1N1CCN(C(=O)C2CCN(S(=O)(=O)c3c(C)noc3/C=C/c3ccc(C)cc3)CC2)CC1 -2.11%
CCCCn1c(SCC(=O)Nc2cccc(OC)c2)nc2c(sc3ccccc32)c1=O -15.5%
COc1cccc(Cn2c(=O)n(CC3CCC(C(=O)N4CCCCC4)CC3)c(=O)c3sccc32)c1 (stereo not given) -11.5%
CC(C)NC(=O)CCn1c(SCc2c(F)cccc2Cl)nc2c(sc3ccccc32)c1=O -14%
CCOC(=O)N1CCN(Cc2nc3cc(NC(C)=O)ccc3n2C(C)C)CC1 -8.63%
Cc1cc(C)cc(-n2c(SCC(=O)NCc3ccco3)nc3c([nH]c4ccccc43)c2=O)c1 17.3%
COc1ccc(NC(=O)NCCc2c(C)nn(C)c2C)c(OC)c1 -5.25%
Cc1nnc2c(N3CCN(c4ccccc4F)CC3)nc3ccccc3n12 0.37%
COc1cccc(NC(=O)CSc2nnc(COc3ccc(Cl)cc3)o2)c1 16.3%
Cc1ccc2c(c1)c(=O)c1ccccc1n2CCCC(=O)Nc1ccc(C)c(F)c1 8.33%
Cc1cc(-n2c(SCC(=O)NCc3ccccc3)nc3ccsc3c2=O)ccc1Cl -21.2%
CCOC(=O)c1cc(-c2ccc(C)cc2)n(CCC(=O)Nc2nc3c(C)cccc3s2)c1C -0.766%
Cc1ccc(S(=O)(=O)c2cnc(SCC(=O)Nc3cccc(Cl)c3)nc2N)cc1C 38.1%
COc1ccc(C(CC(=O)O)NC(=O)c2cc3ccccc3oc2=O)cc1OC (stereo not given) 34.2%
CCN(CC)C(=O)Cn1cc(SCC(=O)Nc2cccc(F)c2)c2ccccc21 -6.96%
CCOC(=O)c1cnc2c(C)cc(C)cc2c1Nc1cccc(C(=O)O)c1 -0.618%
CCOCCCNC(=O)CN1C(=O)COc2ccc(S(=O)(=O)N3CCCCCC3)cc21 -11.9%
Cc1cccc(Cn2c(=O)n(Cc3ccc(C(=O)NC4CCN(Cc5ccccc5)CC4)cc3)c(=O)c3ccccc32)c1 -5.17%
Oc1ccc(Nc2nc3ccccc3n3cnnc23)cc1 37.5%
O=C(Nc1cccc2cccnc12)c1ccccc1[N+](=O)[O-] -9.16%
Cc1ccc(C2c3c(-c4cc(C)ccc4O)n[nH]c3C(=O)N2Cc2ccco2)cc1 (stereo not given) 42.6%
Cc1ccc(NC(=O)CSc2nnc3nc(C)cc(C)n23)cc1 16.1%
Cc1ccc(-n2ncc(C(=O)NCCCN3CCCCC3)c2C2CCN(C(=O)OC(C)(C)C)CC2)c(C)c1 8.83%
CC(C(=O)NCc1ccccc1Cl)n1ccc2cc(S(=O)(=O)N3CCCCC3)ccc21 (stereo not given) 3.37%
CCc1cccc(C)c1NC(=O)CCCn1c(=O)c2cccn2c2cccnc21 -18%
CCOC(=O)c1ccccc1NC(=O)NC(C)c1c(-n2cccc2)sc(C)c1C (stereo not given) -26.2%
Cc1ccc(C)c(NC(=O)CN2C(=O)c3cccc4cccc2c34)c1 -2.24%
CCN(CC)C(=O)c1sc(NC(=O)c2nc3ncccn3n2)c(C(=O)OC)c1C 14.3%
O=C(CSc1nc(-c2cccc(Cl)c2)nc2cc(=O)[nH]n12)Nc1ccccc1 2.18%
O=c1c2ccccc2n2c(-c3ccccc3O)nnc2n1Cc1ccc(F)cc1 4.02%
Cc1cccc(Cn2ccn(Cc3ccc(Cl)cc3)c(=O)c2=O)c1 -4.24%
COc1cccc(CNC(=O)CN2C(=O)CSc3c2c(C)nn3-c2ccccc2)c1OC 17.9%
Cc1cccc(C)c1NC(=O)c1nc(S(C)(=O)=O)ncc1N(Cc1ccc(F)cc1)Cc1ccco1 -19.4%
Cc1ccc(Cl)cc1-n1c(=O)c2sc3ccccc3c2n(CC(=O)NC2CCCCC2)c1=O -3.17%
COc1ccc(CNC(=O)Cn2c(=O)oc3cc(S(=O)(=O)N4CCC(C)CC4)ccc32)cc1 4.42%
CCOC(=O)c1cnc2c(C)cc(C)cc2c1NCCc1ccc(OC)c(OC)c1 11.1%
Cc1ccc2c(CC(=O)NCc3ccccc3)coc2c1C -15%
COc1ccc(C(=O)N(Cc2ccc(N(C)C)cc2)Cc2ccco2)cc1Cl -8.46%
Cc1cc(-c2ccc(C)c(S(=O)(=O)Nc3ccccc3C(F)(F)F)c2)on1 4.45%
O=c1c2sc3ccccc3c2n(Cc2ccccc2Cl)c(=O)n1Cc1ccccc1 -2.99%
COC(=O)C(C)(N)Cc1ccc(O)cc1 (stereo not given) -2.35%
Cc1ccc(C)n1-c1c(C(=O)NCC(C)c2ccccc2)sc2ncccc12 (stereo not given) -2.69%
O=C(NCCc1csc(-c2ccc(C(F)(F)F)cc2)n1)C(=O)Nc1cc(F)ccc1F 3.09%
COc1ccc(NC(=O)CCCn2c(=O)c3cccn3c3ccccc32)c(OC)c1 -20.8%
COc1ccc(C(=O)Oc2c(Sc3ccc(Cl)cc3)c(C)nn2C(C)(C)C)cc1OC -18.8%
CCc1ccccc1NC(=O)Cn1c(=O)n(CCCS(=O)(=O)C2CCCCC2)c(=O)c2ccccc21 -1.84%
CCCCN(C)CCNC(=O)C1CCCN(S(=O)(=O)c2ccc3c(c2)oc(=O)n3C)C1 (stereo not given) -34.2%
CCOC(=O)c1c(C)[nH]c(CCC(=O)NCCCN2CCN(c3cc(Cl)ccc3C)CC2)c1C 14.2%
Cc1c(CCNC(=O)Cc2ccc(F)cc2)sc2nc(-c3ccc(F)cc3)nn12 -23.8%
O=C(Cn1c(=O)c2ccccc2n(CC(=O)Nc2ccc(Cl)cc2)c1=O)NCCc1ccccc1 -5.68%
CCOc1ccc(C(=O)Nc2cccc(OCc3cc(=O)n4ccccc4n3)c2)cc1 -4.18%
Cc1cccc(CNS(=O)(=O)c2csc(C(N)=O)c2)c1 3.74%
O=C1C(c2cccc(Br)c2)N(CCc2ccccc2)C(=O)CN1C1CCCCC1 (stereo not given) -5.19%
CCOc1cccc(CNCCNC(=O)c2nonc2N)c1 -5.93%
Cc1ccccc1NS(=O)(=O)c1nnc(NC(=O)c2ccc(Cl)cc2)s1 19%
CCOC(=O)c1[nH]c(C)c(CCC(=O)Nc2ccc(C(C)=O)cc2)c1C -0.783%
O=S(=O)(Nc1cccc(-c2ccc(N3CCCCCC3)nn2)c1)c1ccc(F)cc1 -8.76%
Cc1ccc(-n2nc3ccc(NC(=O)c4oc5ccc(C)cc5c4C)cc3n2)cc1 -15.5%
CCOc1ccc(OCC(=O)NCCS(=O)(=O)N2CCN(c3ccc(F)cc3)CC2)cc1 -12.4%
CCc1cccc(C)c1NS(=O)(=O)c1cc(-c2cc(C)no2)ccc1C -24.1%
Cc1ccc(-n2nnc(-c3nsc(NC(=O)c4ccccc4)n3)c2C)cc1 -1.26%
O=C(CCC1CCCC1)N1CCc2c([nH]c3ccccc23)C1c1ccc(Cl)cc1 (stereo not given) -34.2%
O=C1OC(=O)C2C3CCC(O3)C12 (stereo not given) -7.26%
CCOC(=O)n1ccn(C)c1=S 27.1%
CCN(C(=O)Cn1ncc2c(=O)oc3ccc(C)cc3c21)c1cc(OC)ccc1OC -21.9%
CCCOc1ccccc1C(=O)N1CCCCC1CCN1CCOCC1 (stereo not given) -3.38%
O=C(Nc1ccccc1F)c1nc(SCc2ccc(F)cc2)ncc1Cl -4.82%
CC1CCc2noc(NC(=O)c3ccccc3[N+](=O)[O-])c2C1 (stereo not given) -19.8%
CCOC(=O)C1CCCN(S(=O)(=O)c2ccc(N3CCCCS3(=O)=O)cc2)C1 (stereo not given) -11%
Cc1cc(C(F)F)n2nc(C(=O)Nc3cc(Cl)ccc3C)nc2n1 25.2%
CN1CCN(C(=O)c2ccc3c(c2)N(Cc2cccc(Cl)c2)C(=O)c2ccccc2S3(=O)=O)CC1 -22.3%
CCCN1C(=O)C(O)(CC(=O)c2ccc(OC)c(OC)c2)c2ccccc21 (stereo not given) -6.19%
O=C(Nc1ccc(C(F)(F)F)cc1)c1cc(S(=O)(=O)NC2CCCCC2)ccc1F 2.69%
COc1ccccc1CNC(=O)C1CCN(S(=O)(=O)c2c(C)noc2/C=C/c2c(C)cc(C)cc2C)CC1 -6.01%
O=C(Nc1ccc2nc(SCCOc3ccccc3)sc2c1)c1cccs1 -2.84%
Cc1coc2c(C)c3oc(=O)c(CC(=O)NCc4ccccc4)c(C)c3cc12 -12.8%
CCOc1ccccc1NC(=O)c1sc2nc(C)cc(C)c2c1N -1.77%
Cc1c(Cl)cccc1NC(=O)CN1C(=O)COc2ccc(S(=O)(=O)N3CCCCCC3)cc21 -10.8%
CCc1ccc(NC(=O)c2ccc(F)c(S(=O)(=O)NC3CCCCCC3)c2)cc1 -14.5%
COc1cccc(CNC(=O)CSc2ncc3c(n2)-c2cc(Cl)ccc2N(C)S3(=O)=O)c1 13.1%
Cc1c(C(=O)N2CCC(C)CC2)c(S(=O)(=O)N(Cc2ccccc2)C(C)(C)C)c(C)n1C -21.4%
CN1CCN(C(=O)C(=O)Nc2c3c(nn2-c2ccc(Cl)cc2)CSC3)CC1 3.29%
Cn1c(=O)c(C(=O)O)nn(-c2ccccc2)c1=O 16.7%
Cc1ccc(NC(=O)Nc2nnc(N3CCCC3)s2)cc1C -3.43%
CCC(=O)NCCc1nc2cc(NC(=O)c3cccc(Br)c3)ccc2n1C -4.22%
